Measurements: PubChem BioAssay AID1460 (National Center for Advancing Translational Sciences (NCATS), 2008)
Screen size: about 270,000 compounds; about 5,800 (2.1%) were called active. Inconclusive results, whose numbers are uncertain, are shown with a selection of clear calls. Calls follow the shape of the dose curve; as a rule, active = well fitted inhibition curve with a large enough effect; inconclusive = small, poorly fitted or top-dose-only effect; inactive = flat fitted curve, though single readings scatter. A potency beside an inconclusive call is a rough fit, not a confirmed value.

molecular target: Microtubule-associated protein tau (Homo sapiens) (UniProt P10636); experiment: qHTS for Inhibitors of Tau Fibril Formation, Thioflavin T Binding; conditions: recombinant tau K18 P301L (four-repeat tau fragment), heparin-induced fibrillization, ThT fluorescence; series mostly up to 57.4 µM; also: nearly all actives have a fitted effect of over 55% in size
Method in brief: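 Tau K18 P301L fragment (15 uM unlabeled plus 0.24 uM Alexa 594-labeled) in 100 mM sodium acetate pH 7 with compound, fibrillization induced by 20 uM heparin for 6 hr at 37 C. Thioflavin T (30 uM) added, fluorescence read after 1 hr (ex 450, em 510 nm).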
Potency is read from the fitted curve at half-maximal effect; tags tell the direction and shape of the fitted curve.

UniProt P10636, sequence (P10636 whole entry, looked up, the tested form may be a part): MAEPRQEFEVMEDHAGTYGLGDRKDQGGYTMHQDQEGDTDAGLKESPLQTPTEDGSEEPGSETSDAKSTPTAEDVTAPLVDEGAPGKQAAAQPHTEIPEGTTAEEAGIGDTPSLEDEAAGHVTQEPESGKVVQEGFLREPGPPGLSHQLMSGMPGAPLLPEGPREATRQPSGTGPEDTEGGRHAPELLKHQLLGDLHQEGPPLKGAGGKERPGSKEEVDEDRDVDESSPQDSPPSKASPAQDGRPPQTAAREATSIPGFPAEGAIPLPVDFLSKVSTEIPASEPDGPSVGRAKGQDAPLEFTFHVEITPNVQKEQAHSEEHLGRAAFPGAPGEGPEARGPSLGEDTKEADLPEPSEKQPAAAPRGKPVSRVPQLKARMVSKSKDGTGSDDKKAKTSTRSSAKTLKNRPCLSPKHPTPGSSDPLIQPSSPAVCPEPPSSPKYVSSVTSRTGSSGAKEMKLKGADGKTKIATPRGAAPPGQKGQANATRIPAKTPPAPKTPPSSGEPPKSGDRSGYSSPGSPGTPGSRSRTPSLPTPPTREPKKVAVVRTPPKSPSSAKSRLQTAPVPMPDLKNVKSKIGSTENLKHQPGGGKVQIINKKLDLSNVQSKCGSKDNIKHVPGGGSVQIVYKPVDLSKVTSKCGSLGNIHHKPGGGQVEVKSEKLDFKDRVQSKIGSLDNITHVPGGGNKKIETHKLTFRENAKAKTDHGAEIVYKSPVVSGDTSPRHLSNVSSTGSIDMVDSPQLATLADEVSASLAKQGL

SMILES	Potency
CC(C)(C)c1cc(NCc2ccccn2)n2ncc(-c3ccccc3)c2n1	inconclusive: 14.1 µM [inhibitor, partial curve, poor fit]
O=S(=O)(Nc1cccc2c1ccc1cccn12)c1cccs1	inconclusive: 17.8 µM [inhibitor, partial curve]
O=C1/C(=C\c2ccco2)SC(=S)N1c1ccc(O)cc1	active: 17.8 µM
O=C(CSCc1ccco1)Nc1cc(C(F)(F)F)ccc1N1CCOCC1	inconclusive: 35.5 µM [inhibitor, single point]
N#Cc1nc(COc2ccc(Cl)cc2)oc1N1CCN(Cc2ccccc2)CC1	inactive
CCSc1ccc(C(=O)Nc2ccc(Br)cn2)cc1[N+](=O)[O-]	inconclusive: 3.16 µM [inhibitor, full curve]
COc1cc2c(C#N)c(N3CCN(c4ccccc4OC)CC3)nc(N)c2c(N)n1	active: 17.8 µM
CCc1ccc(Nc2n[n+](C)c(-c3ccc(C(=O)O)cc3)s2)cc1	inactive
Cc1nn(C(=O)c2ccccc2)c(C)c1Sc1ccc(Cl)cc1	inactive
O=C(CN1CCN(Cc2ccc(F)cc2Cl)S1(=O)=O)Nc1ccc(F)cc1	inactive
O=C1CC(N2CCN(c3ccc(F)cc3)CC2)C(=O)N1c1ccc2c(c1)OCO2 (stereo unspecified)	inactive
COc1cc(NC(=O)Cn2ccn(Cc3ccccc3OC)c(=O)c2=O)cc(OC)c1	inactive
Cc1cc(C)n(C(=O)/C(C#N)=N\Nc2ccccc2[N+](=O)[O-])n1	inconclusive: 22.4 µM [inhibitor, partial curve]
C/C(=C\C(=O)c1ccccc1)Nc1ccc2c(c1)OCO2	inconclusive: 28.2 µM [inhibitor, partial curve]
CC1=C(c2ccc(F)cc2)S(=O)(=O)N=C1N1CCC(C(=O)NCCc2ccco2)CC1	inactive
Cn1c(/C(C#N)=C/Nc2ccccn2)nc2ccccc21	inconclusive: 5.62 µM [inhibitor, single point]
COc1ccc2[nH]c(=O)c(CN(C(=O)c3cccc(Cl)c3)c3ccccc3OC)cc2c1	inactive
Cc1cc(C)n(C(=O)c2ccc(NC(=O)C3COc4ccccc4O3)cc2)n1 (stereo unspecified)	inconclusive: 15.8 µM [inhibitor, partial curve, poor fit]
Cc1ccc(S(=O)(=O)N(C(=O)c2ccncc2)c2ccc(OC(=O)c3ccncc3)cc2)cc1	inconclusive: 31.6 µM [inhibitor, partial curve]
CCCOc1ccc(-c2nnc(-c3ccco3)o2)cc1	inconclusive: 11.2 µM [inhibitor, partial curve, poor fit]
Cc1ccc(-c2cc(C(=O)N/N=C/C=C/c3ccccc3)n[nH]2)s1	inconclusive: 39.8 µM [activator, single point]
S=C(NCc1ccc2[nH]c3c(c2c1)CCCC3)Nc1ccccc1Cl	inconclusive: 22.4 µM [inhibitor, partial curve, poor fit]
O=C(N/N=C/C(Cl)=C/c1ccccc1)c1ccccn1	inconclusive: 39.8 µM [inhibitor, single point]

SMILES	Potency
Cc1cc(Cl)ccc1Oc1ncc(CN2CCN(c3ccccc3)CC2)s1	inconclusive: 8.91 µM [inhibitor, partial curve, poor fit]
CCNc1nc(SCCOc2ccc(Br)cc2)nc(N(C)C)n1	inconclusive: 12.6 µM [inhibitor, single point]
O=C(CSc1ccc2nnc(-c3cccc(F)c3)n2n1)NCc1ccco1	inactive
CC1=C(C(=O)N2CCOCC2)C(c2ccc(Cl)cc2)NC(=S)N1 (stereo unspecified)	inactive
Cc1ccc(S(=O)(=O)N(CC(=O)NCc2ccco2)C2CCCCC2)cc1	inconclusive: 25.1 µM [inhibitor, single point]
C=CCN(CC=C)S(=O)(=O)c1ccc(NC(=S)NC(=O)c2ccco2)cc1	inactive
CCn1nnnc1SCC(=O)NCc1ccc2c(c1)OCO2	inactive
Cc1ccccc1NC(=O)C1CCC(CNS(=O)(=O)c2ccc3c(c2)C(C)(C)C(=O)N3C)CC1 (stereo unspecified)	inactive
O=c1cc(-c2ccccc2)oc2c(O)c(O)ccc12	inconclusive: 28.2 µM [inhibitor, partial curve]
C=C(C)C1CC=C(C)/C(=N/NC(=O)CNc2ccc(OCC)cc2)C1 (stereo unspecified)	inconclusive: 15.8 µM [inhibitor, partial curve]
COc1ccc(S(=O)(=O)/N=C2/NC(=O)/C(=C\c3cc(OC)c(OC)cc3[N+](=O)[O-])S2)cc1	active: 22.4 µM
COC(=O)C1=C(C)NC(=O)/C1=C\c1cc(C)n(-c2c(C)cccc2C)c1C	inconclusive: 28.2 µM [inhibitor, partial curve]
COc1ccc2c(=O)c3c(=O)n(Cc4ccco4)c(-c4ccc(C)cc4)nc3oc2c1	inconclusive: 35.5 µM [inhibitor, partial curve]
Cc1ccc(C)c(N2C(=N)S/C(=C\c3ccc(-c4ccccc4C(=O)O)o3)C2=O)c1	inconclusive: 3.16 µM [inhibitor, single point]
NCCNc1cc(N2CCCC2)ccc1[N+](=O)[O-]	inconclusive: 12.6 µM [inhibitor, partial curve]
COc1cc(C=O)ccc1OCCOc1ccccc1[N+](=O)[O-]	inconclusive: 39.8 µM [inhibitor, single point]
CCc1ccc(S(=O)(=O)c2nnn(-c3ccc(F)cc3)c2N)cc1	inactive
CCCCc1nnc(NC(=O)CSc2nc(O)c(-c3ccccc3)c(=O)[nH]2)s1	inconclusive: 31.6 µM [inhibitor, single point]
CCCNC(=O)C(=O)NCC(c1ccc2c(c1)OCO2)N1CCOCC1 (stereo unspecified)	inactive
CC/C(=N\Nc1ccccc1[N+](=O)[O-])c1ccc(O)cc1	active: 1.78 µM
CCCC(=O)NC(=S)Nc1nc(-c2ccc(OC)cc2)cs1	inactive
O=c1c2cc(-c3ccccc3)sc2nc2n1N=C(c1cccs1)CS2	inconclusive: 3.98 µM [inhibitor, partial curve, poor fit]
CCCCCCCCCCCCCCCC(=O)OCC(O)C1OC(=O)C(O)=C1O (stereo unspecified)	inconclusive: 12.6 µM [inhibitor, partial curve]
